From article PMC10187671 (RNA, 2023)

B1: She2 T109A, yeast two-hybrid fusion (natural protein)
chain: not shown
B2: She2 T109D, yeast two-hybrid fusion (natural protein)
chain: not shown

Key:
Test in all cases: two-hybrid
two-hybrid = biological target: the molecule itself
[1] = biological target: She2 (wild type), yeast two-hybrid fusion (S. cerevisiae, UniProt P36068)
[2] = biological target: T1, She3, yeast two-hybrid fusion (S. cerevisiae, UniProt P38272 1-425)
T1 sequence (looked up): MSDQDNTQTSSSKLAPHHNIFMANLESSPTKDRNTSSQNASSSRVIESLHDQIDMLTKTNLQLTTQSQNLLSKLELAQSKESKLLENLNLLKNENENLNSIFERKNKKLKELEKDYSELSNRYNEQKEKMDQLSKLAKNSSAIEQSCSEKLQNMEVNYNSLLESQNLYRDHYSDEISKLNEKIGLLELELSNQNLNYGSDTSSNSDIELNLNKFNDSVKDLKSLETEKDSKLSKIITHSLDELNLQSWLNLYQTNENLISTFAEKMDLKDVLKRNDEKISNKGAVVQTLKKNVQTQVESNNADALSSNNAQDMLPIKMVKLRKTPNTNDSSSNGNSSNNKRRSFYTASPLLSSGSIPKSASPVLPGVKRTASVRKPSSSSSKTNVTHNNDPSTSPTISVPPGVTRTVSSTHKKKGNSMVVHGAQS

[3] = biological target: T2, importin-α Srp1, yeast two-hybrid fusion (S. cerevisiae, UniProt Q02821 1-542)
T2 sequence (looked up): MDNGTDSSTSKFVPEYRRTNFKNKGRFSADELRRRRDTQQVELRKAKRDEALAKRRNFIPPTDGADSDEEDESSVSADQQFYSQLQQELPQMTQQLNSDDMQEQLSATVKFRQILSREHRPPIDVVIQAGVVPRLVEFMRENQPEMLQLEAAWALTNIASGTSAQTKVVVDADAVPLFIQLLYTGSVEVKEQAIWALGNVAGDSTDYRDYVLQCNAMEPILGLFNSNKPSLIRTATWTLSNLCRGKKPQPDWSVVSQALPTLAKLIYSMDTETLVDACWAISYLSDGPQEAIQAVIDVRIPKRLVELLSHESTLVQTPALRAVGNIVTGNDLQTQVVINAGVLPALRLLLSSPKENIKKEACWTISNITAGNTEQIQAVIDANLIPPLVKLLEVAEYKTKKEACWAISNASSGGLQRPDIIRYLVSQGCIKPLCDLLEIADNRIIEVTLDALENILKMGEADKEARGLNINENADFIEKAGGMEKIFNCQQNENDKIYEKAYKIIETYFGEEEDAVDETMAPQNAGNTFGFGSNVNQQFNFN

Binder	fold reduction in β-galactosidase activity against wild-type She2–She2 (two-hybrid) [fold]	fold decrease in interaction against wild-type She2–She2 [1] [fold]	fold decrease of the She2–She3 complex against wild-type She2 [2] [fold]	fold decrease in interaction against She2 WT or She2 T109A [3] [fold]	fold decrease in interaction against wild-type She2–She2 (two-hybrid) [fold]
B1	3	–	–	–	–
B2	–	~20	2	6	~20
